From PubChem BioAssay AID1745853 (National Center for Advancing Translational Sciences (NCATS), 2022) come the findings set out here.

What all share (experiment): Primary Screen for Target Class Profiling of Small Molecule Inhibitors of Methyltransferases
Assay [1] deals with Glycine N-methyltransferase (Homo sapiens) (UniProt Q14749). As to conditions: purified enzyme, MTase-Glo SAH luminescence; measured here: GNMT inhibition; at 40 µM; stronger effect = lower value. The essentials: (§1)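 Each enzyme was assayed with SAM and its substrate. SAH formation detected by MTase-Glo luminescence; single-point 40 uM screen[…].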
For assay [2], the target named is Guanidinoacetate N-methyltransferase (Homo sapiens) (UniProt Q14353). As to conditions: purified enzyme, MTase-Glo SAH luminescence; measured here: GAMT inhibition; at 40 µM; stronger effect = lower value. The essentials: as §1
Assay [3] concerns the target Histamine N-methyltransferase (Homo sapiens) (UniProt P50135). As to conditions: purified enzyme, MTase-Glo SAH luminescence; measured here: HNMT inhibition; at 40 µM; stronger effect = lower value. The procedure, abridged:
as §1

Assay [4] concerns the target Nicotinamide N-methyltransferase (Homo sapiens) (UniProt P40261). As to conditions: purified enzyme, MTase-Glo SAH luminescence; measured here: NNMT inhibition; at 40 µM; stronger effect = lower value. The essentials: as §1
In assay [5] the target is Phenylethanolamine N-methyltransferase (Homo sapiens) (UniProt P11086). As to conditions: purified enzyme, MTase-Glo SAH luminescence; measured here: PNMT inhibition; at 40 µM; stronger effect = lower value. The essentials: as §1

Molecules are shown by their SMILES. This is one part of the list. Further columns of the screen follow, without active or inactive calls.
% is set by controls: 0 for no effect and ±100 for the full control effect.

Turning to `Cn1c(Cn2cccn2)nnc1C1CCCN(C(=O)c2ccoc2)C1` (stereo not drawn), the activity change, negative = inhibition was -2.99% in assay [1]; -8.18% in assay [2]; -1.06% in assay [3]; -10.7% in assay [4]; -8.01% in assay [5].
`O=C(NCCc1cccs1)c1cc2n(n1)CCCN(Cc1ccc(F)cc1)C2=O`: the activity change, negative = inhibition was -3.76% in assay [1]; 0% in assay [2]; 6.71% in assay [3]; 0.893% in assay [4]; 3.1% in assay [5].
The like results for `C=C(C)C1CC=C(C(=O)O)CC1` (stereo not drawn) were, in that order, 3.32%, 4.77%, 4.5%, -8.73% and -0.704%.
For `CCC(C)N1C(=O)c2c(NC(C)=O)c3cc(F)ccc3n2CC1(C)C(=O)NC1CCCCC1` (stereo not drawn), the activity change, negative = inhibition was -2.18% in assay [1]; 0% in assay [2]; 0.746% in assay [3]; -0.159% in assay [4]; 1.39% in assay [5].
The like results for `Cn1c(=O)c(F)c(Nc2ccc(I)cc2F)c2c(=O)n(CC(O)CO)cnc21` (stereo not drawn) were, in that order, -12.7%, -4.47%, -0.375%, -27.6% and -11.2%.
For `Cc1ccc2c(c1)c(-n1cccc1)c1n2CC(C)(C(=O)NC2CCCC2)N(Cc2cccnc2)C1=O` (stereo not drawn), the activity change, negative = inhibition in assay [1] is -5.77%; in assay [2], 2.69%; in assay [3] it was -5.93%; in assay [4] it was -20%; in assay [5], -2.4%.
The like results for `CC(C)n1cnc2cc(CNC(=O)c3cccnc3)ccc21` were, in that order, 14.2%, 0.7%, 9.19%, 7.87% and 7.43%.
On to `Cc1ccncc1C(=O)N1CC[C@@H]2CN(S(C)(=O)=O)[C@@H]2C1`, for which the activity change, negative = inhibition in assay [1] was -0.073%; in assay [2], 0.773%; in assay [3] it was 1.43%; in assay [4], 1.15%; in assay [5], 0.839%.
As to `O=C(c1ccc2ccccc2n1)N1CC2CC(C1)[C@H]1CCCC(=O)N1C2` (stereo partly drawn), the activity change, negative = inhibition is 1.87% in assay [1]; 0.565% in assay [2]; 1.82% in assay [3]; -2.11% in assay [4]; 1.87% in assay [5].
Turning to `CCOC(=O)c1cc2n(n1)CC(C)(C(=O)NCc1ccccc1OC)N(c1ccc(OCC)cc1)C2=O` (stereo not drawn), the activity change, negative = inhibition was determined as 3.36% in assay [1]; 0% in assay [2]; 6.75% in assay [3]; 5.35% in assay [4]; 4.61% in assay [5].
Take `COc1cccc(N2CCN(S(=O)(=O)c3cc4c(cc3C)n(C)c(=O)n4C)CC2)c1`: the activity change, negative = inhibition in assay [1] is 5.54%; in assay [2], 0.457%; in assay [3], 1.66%; in assay [4], 1.86%; in assay [5], 4.41%.
With `Cc1ncccc1C(=O)N1C[C@H]2OC(=O)N(CCc3cccc(Cl)c3)[C@H]2C1`, the activity change, negative = inhibition is -9.28% in assay [1]; -8.43% in assay [2]; -6.7% in assay [3]; -9.91% in assay [4]; -3.59% in assay [5].
The matching figures for `CCc1ccc(S(=O)(=O)c2nnn3c2nc(NCCCN2CCCC2=O)c2cc(Cl)ccc23)cc1`: -18.3%, 1.71%, -9.32%, -14.3% and -5.66%.
For the compound `COc1cccn(CC(=O)N2CCN(c3ccccc3C#N)CC2)c1=O`, the activity change, negative = inhibition in assay [1] is -5.16%; in assay [2] it was 1.99%; in assay [3], 0.579%; in assay [4], -1.41%; in assay [5], 2.42%.
Turning to `COc1ccc(OC)c2c1cc1n2CC(C)(C(=O)NC2CCCCC2)N(Cc2ccc(F)cc2)C1=O` (stereo not drawn), the activity change, negative = inhibition is -4.28% in assay [1]; -2.58% in assay [2]; -2.36% in assay [3]; -6.72% in assay [4]; -7.96% in assay [5].
For `CC1CCC(NC(=O)C2(C)Cn3c(cc4sccc43)C(=O)N2Cc2cccs2)CC1` (stereo not drawn), the activity change, negative = inhibition in assay [1] is -0.728%; in assay [2], 1.94%; in assay [3], -6.13%; in assay [4], -12.8%; in assay [5], -4.56%.
Regarding `COCCN1C(=O)c2cc(-c3ccc(OC)cc3)nn2CC1(C)C(=O)NCc1ccccc1` (stereo not drawn), the activity change, negative = inhibition in assay [1] turned out to be 3.52%; in assay [2], 0.687%; in assay [3], 4.09%; in assay [4] it was 8.58%; in assay [5] it was 0.049%.
On to `[N-]=[N+]=N[C@]1(CO)O[C@@H](n2ccc(=O)[nH]c2=O)[C@@H](O)[C@@H]1O`, for which the activity change, negative = inhibition is -4.4% in assay [1]; -5.73% in assay [2]; 7.58% in assay [3]; -14% in assay [4]; 1.27% in assay [5].
Turning to `CN(C)CC[C@@H](c1ccc(Br)cc1)c1ccccn1`, the activity change, negative = inhibition is -10.2% in assay [1]; -1.23% in assay [2]; -23.9% in assay [3]; -16.1% in assay [4]; 0.499% in assay [5].
The like results for `CN[C@H](CC(C)C)C(=O)N[C@H]1C(=O)N[C@@H](CC(N)=O)C(=O)N[C@H]2C(=O)N[C@H]3C(=O)N[C@H](C(=O)N[C@H](C(=O)O)c4cc(O)cc(O)c4-c4cc3ccc4O)[C@H](O[C@H]3C[C@](C)(N)[C@@H](O)[C@H](C)O3)c3ccc(c(Cl)c3)Oc3cc2cc(c3O[C@@H]2O[C@H](CO)[C@@H](O)[C@H](O)[C@H]2O[C@H]2C[C@](C)(NCc3ccc(-c4ccc(Cl)cc4)cc3)[C@@H](O)[C@H](C)O2)Oc2ccc(cc2Cl)[C@H]1O` were, in that order, -0.737%, 17.6%, 3.99%, -15.1% and -0.164%.
The like results for `CCCS(=O)(=O)N1CCC2(CC1)c1[nH]c3ccccc3c1CCN2C` were, in that order, -7.21%, 0.19%, -1.78%, 2.1% and 0.158%.
The matching figures for `CC1CCN(S(=O)(=O)c2ccc3c(ccn3CCC(=O)NC3CCCCC3C)c2)CC1` (stereo not drawn): -0.352%, 3.67%, -3.61%, -5.54% and -4.94%.
For the compound `Cc1ccccc1CN1C(=O)c2ccc(-c3ccco3)n2CC1(C)C(=O)NC1CCCCC1C` (stereo not drawn), the activity change, negative = inhibition came out at 0.262% in assay [1]; 0% in assay [2]; 5.54% in assay [3]; 1.92% in assay [4]; 2.77% in assay [5].
The like results for `Cc1cccc(NC(=O)CSc2nnc3n(CCC(C)C)c(=O)c4ccccc4n23)c1` were, in that order, -0.548%, 0%, 7.83%, -3.01% and 1.92%.
Consider `COC(=O)c1ccc(=O)c2nc3/c(=C/O)c(O)cc(=O)c3[nH]c12`, for which the activity change, negative = inhibition in assay [2] was -76.2%; in assay [4] it was -71%; in assay [5], -85.6%.
For `O=C(NC1CC1)c1nc2sccn2c1-c1ccc(C(F)(F)F)cc1`, the activity change, negative = inhibition in assay [1] is -2.17%; in assay [2], -2.35%; in assay [3], -0.865%; in assay [4], -13.9%; in assay [5], -15.1%.
The matching figures for `CC1(C(=O)NC2CCCCCCC2)Cn2c(cc3sccc32)C(=O)N1Cc1ccco1` (stereo not drawn): -18.6%, 0.504%, -4.2%, -16.2% and -6.12%.
The like results for `COc1ccc(OC)c(CCNC(=O)CNC(=O)C2(C)Cn3c(cc4ccccc43)C(=O)N2C)c1` (stereo not drawn) were, in that order, 5.29%, 0%, 7.93%, 7.79% and 3.41%.
The like results for `O=C(Cn1c(=O)oc2cc(S(=O)(=O)N3CCCC3)ccc21)Nc1ccc(Cl)cc1F` were, in that order, 1.24%, 0.815%, 7.31%, 8.23% and -1.79%.
As for `COc1ccc(CNC(=O)C(C)n2ccc3cc(S(=O)(=O)N4CCCCC4)ccc32)cc1` (stereo not drawn), the activity change, negative = inhibition in assay [1] worked out at 5.75%; in assay [2], 0%; in assay [3], 7.11%; in assay [4] it was 4.28%; in assay [5] it was 4.12%.
The matching figures for `CC(C)c1ccc(N2C(=O)CSc3c(c4ccccc4n3C)C2C(=O)NCc2ccccc2)cc1` (stereo not drawn): 0.232%, 2.03%, -2.2%, -4.32% and -6.09%.
The like results for `COc1cc([C@H]2O[C@H](c3cc(OC)c4c(c3)OCO4)[C@H](C)[C@H]2C)cc(OC)c1OC` were, in that order, 0%, 8.92%, 8.41%, -7.62% and 0.766%.
On to `CCc1ccc(-c2cc3n(n2)CC(C)(C(=O)NC2CCCCCC2)N(CCCOC(C)C)C3=O)cc1` (stereo not drawn), for which the activity change, negative = inhibition in assay [1] is -2.33%; in assay [2], 5.3%; in assay [3], 7.61%; in assay [4], -0.779%; in assay [5], -0.194%.
The matching figures for `CN1C(=O)c2cc(C(=O)NCCCN3CCCC3)nn2CC1(C)C(=O)NC1CCCCCC1` (stereo not drawn): -1.84%, -2.27%, -5.74%, -0.458% and -2.75%.
As to `Cc1ccc(-n2cccc2CC(=O)N2CCOCC2)cc1`, the activity change, negative = inhibition in assay [1] is -9.84%; in assay [2], -10.7%; in assay [3] it was -3.54%; in assay [4], -15.4%; in assay [5] it was -1.79%.
On to `COc1ccc(OC)c(CCNC(=O)CCc2nnc3n(Cc4ccc(C)cc4)c(=O)c4ccccc4n23)c1`, for which the activity change, negative = inhibition is -3.29% in assay [1]; 0% in assay [2]; -2.47% in assay [3]; -7.23% in assay [4]; -10.4% in assay [5].
